# Assay results from the supplement of paper PMC3334620.
# In all, about 33,000 sequences were measured (“E-score (-0.5 to 0.5)”: median about -0.012, highest 2% from about 0.27 on). The list shows a part of the results.
# Molecular target: T1, Vhr1 (UniProt P40522)
# T1 sequence: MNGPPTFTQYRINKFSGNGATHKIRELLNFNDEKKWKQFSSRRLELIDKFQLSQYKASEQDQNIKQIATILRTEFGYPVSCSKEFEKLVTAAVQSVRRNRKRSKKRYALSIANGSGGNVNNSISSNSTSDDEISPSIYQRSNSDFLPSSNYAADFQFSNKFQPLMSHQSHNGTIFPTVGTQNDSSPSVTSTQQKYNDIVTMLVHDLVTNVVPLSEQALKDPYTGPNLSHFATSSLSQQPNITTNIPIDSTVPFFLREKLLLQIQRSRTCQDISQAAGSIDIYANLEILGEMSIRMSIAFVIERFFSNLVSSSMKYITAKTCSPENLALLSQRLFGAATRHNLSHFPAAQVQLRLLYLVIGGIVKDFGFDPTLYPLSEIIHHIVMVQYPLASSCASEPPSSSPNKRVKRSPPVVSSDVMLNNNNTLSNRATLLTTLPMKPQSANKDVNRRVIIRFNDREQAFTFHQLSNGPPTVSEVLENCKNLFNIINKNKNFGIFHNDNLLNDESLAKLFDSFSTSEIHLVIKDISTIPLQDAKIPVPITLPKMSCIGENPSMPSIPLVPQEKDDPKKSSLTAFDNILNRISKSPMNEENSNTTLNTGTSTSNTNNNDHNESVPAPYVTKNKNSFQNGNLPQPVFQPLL
# Assay: PBM E-score (8-mer binding enrichment) (E-score (-0.5 to 0.5)); higher = stronger / more preferred TF binding; most listed sequences are background and not binding sites
# Settings: protein concentration: 200 nM; construct: GST-full length
# Summary of the method: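 Detection of bound protein used fluorescent anti-GST, with scans normalised by masliner. The proteins were GST-tagged yeast transcription factors applied at about 100-200 nM to universal all-10-mer Agilent arrays made double-stranded by primer extension. Each ungapped eight-base word, pooled with its reverse complement, was scored with an E-score from the Universal PBM Analysis Suite.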
row,Sequence,PBM E-score
1,GAGTTGGC,0.161
2,CCGGAAGA,-0.0401
3,AGTAAGGC,-0.0517
4,AAACCATC,0.273
5,AACCGACG,0.0236
6,CCCCAATA,-0.152
7,GTTCGATA,0.123
8,TAAGTCGA,-0.102
9,ATCCGGGC,0.0847
10,AATCCCCG,-0.0461
11,AGGCCCCC,-0.252
12,CTGGATAA,-0.112
13,ACTTATGA,0.155
14,GCTTTTTA,-0.135
15,ACGTGAGA,-0.176
16,AAAGGTCC,-0.195
17,ACCTTGGA,-0.166
18,AGAGAGTG,-0.0862
19,CTAGTGTC,-0.0413
20,AGGACGTG,-0.0296
21,GTTCTCGA,-0.183
22,AATTAATT,-0.19
23,GAAGGTCC,-0.076
24,GGTCAATA,0.219
25,ATGGTTCG,0.224

row,Sequence,PBM E-score
1,CGATGGGA,-0.0641
2,CCAGGGAA,-0.0857
3,GTGTCACA,0.0736
4,TGGGTTAA,0.135
5,ACGTTACC,-0.0694
6,ACACCTGG,0.174
7,CGTTGATA,0.134
8,GGGCCAAA,-0.151
9,GTTCCAGA,-0.2
10,ATTCAATC,0.115
11,GCAGCAGC,-0.0888
12,ACGTACAG,-0.0884
13,ACGACGCG,-0.0401
14,CACTGTGG,0.105
15,GCACATCA,0.17
16,TAGACTAA,-0.099
17,AGGAGATG,0.131
18,AGTAACAG,0.0281
19,GACGAATC,0.0723
20,AGATACCC,0.0718
21,CGCTCATA,0.0591
22,AAGCCCGG,-0.011
23,ACATGAGC,0.0844
24,GAACGATA,-0.0543
25,CAGACCCC,-0.245

row,Sequence,PBM E-score
1,ACCTCTGG,-0.162
2,AAACCCTA,-0.0524
3,CTCGAAAA,-0.111
4,CAAAAACG,0.00433
5,CGGGGGCA,-0.141
6,CAACCAAG,-0.00427
7,CACCGCCA,0.242
8,GCGTCGCC,-0.0857
9,CAATTGCC,-0.139
10,ATGCCCAC,0.0501
11,CGGTTCTA,-0.0571
12,CTCCAACC,0.0667
13,TAGAGAGA,-0.0877
14,CCCCAGGG,-0.0705
15,ACAAATCA,0.125
16,AGAGATGG,-0.0539
17,GTGATAAC,-0.125
18,GGATCACA,0.06
19,GATAAATA,0.0772
20,GGCTAAAC,0.00088
21,TGGTTGAA,-0.0692
22,CACCGAAG,0.235
23,ATGATCCC,0.141
24,AACGTCAC,-0.0246
25,GGGCGCAA,0.0104

row,Sequence,PBM E-score
1,GGATTATA,0.0107
2,AGTTCGAG,0.0333
3,AAATTCAC,-0.0588
4,CAACGACA,0.121
5,CCTTAGTA,-0.0427
6,AACTCCGC,-0.0635
7,CAGACCTA,-0.0734
8,CGCAAGGC,0.00435
9,ATCCTACA,0.0126
10,CGGAGCAC,0.0672
11,ATCATGCG,0.283
12,ACGGGGAG,0.0405
13,CGTAACAG,0.0945
14,ATTCAAAG,-0.137
15,CGCGGGTC,0.209
16,CCGGCCCC,-0.0954
17,GTTATACA,0.108
18,ACCTTGAG,-0.0655
19,GGGTAAAC,0.0194
20,GAACAGTA,0.0579
21,ACCAGGGT,0.135
22,CAGAATGG,-0.0231
23,AAATGTGT,0.203
24,AGACGTCT,-0.286
25,AGCGAATA,-0.00991

row,Sequence,PBM E-score
1,TCAATGCA,-0.1
2,CTGATGTA,0.215
3,AACTGTAC,-0.211
4,GTGAATCA,0.394
5,ACGCAGGG,0.00883
6,AAGCGGGG,-0.113
7,CGTTTAAG,-0.155
8,AGCTCAGC,-0.232
9,AACCATCG,0.261
10,AAATTTAC,-0.135
11,GAAAAACC,-0.162
12,CTCGGTGC,0.0755
13,CGCACTGC,0.0693
14,AAATAGGG,-0.0434
15,GGCACTTA,-0.179
16,CAGTTAGG,-0.0792
17,AGTCTTAG,0.052
18,CACAGCTG,-0.0522
19,CTCACGGC,0.00316
20,ATTGTACC,0.0472
21,GGTACCGA,-0.184
22,TACGCCGA,-0.0327
23,AGGCAGTA,-0.0691
24,TAACGAAA,-0.0166
25,GAACATAC,0.00185

row,Sequence,PBM E-score
1,ACAAAAAC,-0.126
2,GGCAACAC,-0.0419
3,TCCGTACA,0.176
4,GTATCTAA,0.159
5,ATCTCGAC,0.0463
6,CGCAGATA,0.099
7,GAATGGCA,-0.0693
8,CAGGAGGA,-0.143
9,GACTACAA,0.19
10,ACGAGCGA,0.121
11,GCGCACAA,0.181
12,AAGAATAT,-0.167
13,CTAGTTGC,-0.0715
14,ACAGTGCG,0.0115
15,GAGCGATA,0.0352
16,ACTCCTCG,0.123
17,ATAATCGG,0.222
18,CCTTGTTA,-0.0637
19,ATACCATC,0.124
20,ATCTGATG,-0.00603
21,GCGGAAAC,-0.16
22,AGTCGTTA,0.0407
23,ACGGTGTA,0.0386
24,CGTCCCCC,-0.161
25,AGCAATGC,-0.0267

row,Sequence,PBM E-score
1,AGTCGATA,0.0206
2,AGATGGGA,-0.242
3,AGACAGAT,0.0485
4,ATAAGGCC,-0.173
5,AACTCTTG,-0.186
6,AGTCTGGG,-0.175
7,AACACGGC,-0.0379
8,GTGCGCCA,-0.0413
9,GTAAAAAA,-0.216
10,TGGCTAAA,-0.0906
11,CTCTGCAA,-0.0133
12,ATTCCTAA,0.0904
13,TGTCATAA,-0.0558
14,GCGACTCC,0.414
15,GATCAAAA,-0.128
16,AAACGAAG,-0.18
17,CGACGTTC,-0.23
18,ATCTTAGA,-0.0279
19,ATTATGTA,0.18
20,GTCGAATA,-0.079
21,CATAATGG,0.142
22,ATACGCTA,0.106
